In PubChem BioAssay AID445 (National Center for Advancing Translational Sciences (NCATS), 2006):
Screen size: about 110,000 compounds; about 40 (0.04%) were called active. Inconclusive means that the source gave no clear call. Such entries were picked first, then a sample of the others. Calls follow the shape of the dose curve; as a rule, active = well fitted curve in the direction sought with a large enough effect in the signal ratio (not every such curve was filed as active); inconclusive = small, poorly fitted or top-dose-only effect, or a change in a side signal; inactive = flat fitted curve, though single readings scatter; the % refers to the signal ratio. Where the call is inconclusive, the potency comes from a doubtful curve fit.
Potency is read from the fitted curve at half-maximal effect.

Assay: IkB Signaling;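 as to IkBa stabilization activation: 0% = basal untreated cells and 100% = reference inhibitor full response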
Details: ABC-DLBCL IkBa-CBG/CBR dual luciferase ratio (green luciferase fused to IkBa over red control in OCI-Ly3 lymphoma cells), 4 h; IkBa stabilization activation: at 57.1 µM (top of the series), scaled: untreated 0%, proteasome inhibitor 100% unless noted
How it was run: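 Luminescence ratio of IκBα-fused green versus native red beetle luciferase in OCI-Ly3 cells, 4 h post-doxycycline with compound; red signal alone, scaled from basal (0%) to zero light (-100%), flagged nonspecific or cytotoxic effects.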
For `COc1ccccc1-c1c(C)nn2c(N3CCCCCC3)cc(C)nc12`, the IkBa stabilization activation was inconclusive: -3.42% [signal inhibitor]. In the case of `COc1cccc(-c2nc(SCC(=O)NC3CCCC3)c(-c3ccccc3)[nH]2)c1`, the IkBa stabilization activation is reported as inconclusive: 6.85% [signal inhibitor]. In the case of `CCOc1ccc(NC(=O)/C=C\C(=O)N(c2ccc(C(C)C)cc2)C(C(=O)NCc2ccco2)c2ccc(F)cc2)cc1` (configuration not stated), the IkBa stabilization activation is reported as inconclusive: 0.5% [signal inhibitor]. In the case of `COc1ccc(-c2cnn3c(C)cc(C)nc23)cc1OC`, the “IkBa stabilization activation” value is reported as inactive: -2.27%. For `CCOc1ccc(-c2nc(SCC(=O)NC3CCCC3)c(-c3ccccc3)[nH]2)cc1OC`, the IkBa stabilization activation was inconclusive: -2.36% [signal inhibitor]. For `CCOc1ccc(OCC)c(NS(=O)(=O)c2ccc(-c3coc(C)n3)cc2)c1`, the “IkBa stabilization activation” value was inactive: 1.67%. In the case of `CN1CCN(c2nc(-c3cccc(NS(C)(=O)=O)c3)nc3ccccc23)CC1`, the IkBa stabilization activation is reported as inactive: -1.65% [at 11.4 µM, scaled: untreated 0%, proteasome inhibitor 100%]. For `Cc1ccc(CSc2nnc(-c3cccs3)n2C)cc1`, the “IkBa stabilization activation” value was inactive: 2.36%. In the case of `COc1ccc(NC(=O)c2c(NC(=O)c3ccc(Br)cc3)sc3c2CCCC3)cc1`, the Potency is reported as inconclusive: 5.01 µM [signal inhibitor, partial curve]. In the case of `CCOC(=O)c1cc2c(=O)n3cccc(C)c3nc2n(CC2CCCO2)c1=NC(C)=O` (configuration not stated), the “IkBa stabilization activation” value is reported as inactive: -1.96%. With `Cn1cc(S(=O)(=O)N2CCOCC2)cc1C(=O)Nc1ccc(Cl)c(C(F)(F)F)c1` the “IkBa stabilization activation” value was inactive: 0.667%. With `Cc1ccc(O)c(NC(=O)c2cc(-c3ccccc3O)no2)c1` the IkBa stabilization activation was inconclusive: 0.759% [signal inhibitor]. For `CCOc1ccccc1NC(=O)Cc1noc2ccc(C)cc12`, the IkBa stabilization activation was inconclusive: 0.796% [signal inhibitor]. With `CCOc1ccc2nc(NC(=O)c3nc(SC)ncc3Cl)sc2c1` the IkBa stabilization activation was inconclusive: 0.731% [signal inhibitor]. With `COc1cc(NC(=O)c2ccco2)c(OC)cc1NC(=O)c1cc(OC)c(OC)c(OC)c1` the IkBa stabilization activation was inconclusive: 17.9% [signal inhibitor]. With `COc1cc(NC(=O)c2cn(C3CCCC3)c(=O)c3c2c2ccccc2n3C)cc(OC)c1OC` the IkBa stabilization activation was inconclusive: 11.2% [signal inhibitor]. With `Cn1cnc2c(=O)oc3ccc(S(=O)(=O)Nc4ccc(F)cc4)cc3c21` the “IkBa stabilization activation” value was inactive: 5.21%. In the case of `Oc1ccc(/C=C/c2cc(O)cc(O)c2)cc1`, the “IkBa stabilization activation” value is reported as inactive: 0.327%. For `CC(=O)C1=C(c2ccc(Cl)cc2)N(C(C)=O)n2c(nnc2C2CCCCC2)S1`, the IkBa stabilization activation was inconclusive: 2.55% [signal inhibitor]. For `Cc1ccc(Cl)cc1N(C)C(=O)c1cn(C2CCCCC2)c(=O)c2c1c1ccccc1n2C`, the IkBa stabilization activation was inconclusive: 12.4% [signal inhibitor]. In the case of `Cc1ccc(N(CC(=O)Nc2cccc(Cl)c2)S(=O)(=O)c2cccs2)cc1`, the Potency is reported as inconclusive: 20 µM [signal inhibitor, single point]. With `Cc1ccc2c(c1)N(CCC(=O)NCc1ccccc1Cl)C(=O)CO2` the IkBa stabilization activation was inconclusive: 2.38% [signal inhibitor]. In the case of `Cc1ccc2onc(CC(=O)Nc3ccc(C(C)C)cc3)c2c1`, the IkBa stabilization activation is reported as inconclusive: 0.449% [signal inhibitor]. For `COc1cccc(CNC(=O)c2cc3c(=O)oc4ccc(C)cc4c3s2)c1`, the “IkBa stabilization activation” value was inactive: -1.08%. For `CCOc1ccccc1C(=O)n1nc2nc(C)cc(C)c2c1N`, the “IkBa stabilization activation” value was inactive: -0.677%. For `CNc1oc(-c2ccco2)nc1C#N`, the “IkBa stabilization activation” value was inactive: 0.534%. With `O=C(O)CCSSCCC(=O)O` the “IkBa stabilization activation” value was inactive: -0.383%. For `COc1ccc(N(C(=O)c2ccco2)C(C(=O)NC2CCCC2)c2ccc(N(C)C)cc2)cc1OC` (configuration not stated), the “IkBa stabilization activation” value was inactive: -0.321%. With `COc1ccc(N(C(=O)c2cccc(C)c2)S(=O)(=O)c2ccc(Cl)cc2)cc1` the IkBa stabilization activation was inconclusive: 6.26% [signal inhibitor]. With `Cc1c(NC(=O)Nc2ccccc2C(F)(F)F)sc2nc3n(c(=O)c12)CCC(C)CC3` (configuration not stated) the IkBa stabilization activation was inconclusive: 0.637% [signal inhibitor]. For `CC(C)COc1ccc(C(=O)NCc2ccco2)cc1`, the “IkBa stabilization activation” value was inactive: 0.353%. With `O=C(Nc1ccc2c(c1)OCO2)C1(S(=O)(=O)c2ccc(Cl)cc2)CC1` the “IkBa stabilization activation” value was inactive: 0.432%. For `COc1ccc2nc(N(Cc3cccnc3)C(=O)C3CCCCC3)sc2c1`, the IkBa stabilization activation was inconclusive: 5.66% [signal inhibitor]. With `COc1cccc(C2C(C(=O)Nc3ccc(C)cc3C)=C(C)Nc3nc4ccccc4n32)c1OC` (configuration not stated) the IkBa stabilization activation was inconclusive: 3.7% [signal inhibitor]. With `CC1(C)C(=O)N(CC(=O)Nc2ccc(Br)cc2F)c2ccccc21` the IkBa stabilization activation was inconclusive: 3.63% [signal inhibitor]. With `COc1ccc2[nH]c(=O)c(CN(Cc3nnnn3Cc3ccco3)C3CCCCC3)cc2c1` the “IkBa stabilization activation” value was inactive: 1.01%. For `C=C(C)Cn1c(=O)c2c(nc3n2CCN3c2ccc(F)cc2)n(C)c1=O`, the IkBa stabilization activation was inconclusive: 1.51% [signal inhibitor]. For `CCOc1ccc(NCc2cccn2-c2nnc(N3CCC(C(=O)NCCOC)CC3)s2)cc1`, the IkBa stabilization activation was inconclusive: -0.693% [signal inhibitor]. In the case of `COCC(=O)N1CCC[C@@]2(CCN(C(=O)Nc3cccc(C#N)c3)C2)C1`, the IkBa stabilization activation is reported as inactive: 0.619% [at 11.4 µM, scaled: untreated 0%, proteasome inhibitor 100%]. In the case of `Cc1ccc(C(=O)NC2CCCCCC2)o1`, the “IkBa stabilization activation” value is reported as inactive: 4.03%. In the case of `COc1ccccc1/C=C/c1nc(C#N)c(NCCc2ccccc2)o1`, the “IkBa stabilization activation” value is reported as inactive: 1.25%. With `Cc1ccccc1Nc1cc(C(=O)NCc2cccs2)c2ccccc2n1` the IkBa stabilization activation was inconclusive: -2.52% [signal inhibitor]. With `COc1ccc(C)cc1N(C)C(=O)c1c2c(nc3ccccc13)C(=O)N(C1CCCCC1)C2` the IkBa stabilization activation was inconclusive: 2.67% [signal inhibitor]. For `COc1ccc(CNS(=O)(=O)c2ccc(-c3cnc(C4CC4)o3)cc2)cc1`, the “IkBa stabilization activation” value was inactive: -0.844%. With `COc1ccc(Nc2ncc(C(=O)N3CCN(c4ccc(F)cc4)CC3)c3ccccc23)cc1` the IkBa stabilization activation was inconclusive: 4.72% [signal inhibitor]. For `CCOC(=O)CCSc1nnc(-c2cccnc2)n1-c1ccccc1OC`, the IkBa stabilization activation was inconclusive: 11.2% [signal inhibitor]. With `Cc1ccsc1C(=O)OCC(=O)c1cc2ccccc2o1` the IkBa stabilization activation was inconclusive: 5.45% [signal inhibitor].
